# This is one part of the list. Cleavage of a single-stranded DNA pool by Rep nickase domains was read by sequencing (3 µM enzyme, 1 h, 37 °C); shown is the middle of each 90-letter strand. A value is the log2 ratio of uncut reads to the pool without enzyme; the lower, the more was cut; hits are not called. Shares of all reads are compared; values above 0 arise when much of the pool is cut.
# What was measured:
# Assay in all cases: uncleaved DNA left, log2 of reads against the no-enzyme library (log2 ratio); higher = less cleavage (more negative = more Rep cleavage of the k-mer); sequences stand for … in CTCGTCCG…ACCGGAGA
# [1] = system: T1, Rep nickase domain of Muscovy duck circovirus
# T1 sequence (protein, residues 1-111, tag omitted): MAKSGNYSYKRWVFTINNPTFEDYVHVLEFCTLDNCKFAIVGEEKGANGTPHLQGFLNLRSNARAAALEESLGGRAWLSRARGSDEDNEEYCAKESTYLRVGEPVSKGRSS
# Procedure: (§1)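 A pool of 90-nt single-stranded DNAs with seven random bases just before the constant AC of the nick site (name = the seven bases) was cut by 3 µM recombinant His6-SUMO-tagged Rep nickase domain (300 nM DNA, 50 mM HEPES pH 8.0, 50 mM NaCl, 1 mM MnCl2, 1 h, 37 °C, three replicates). Uncut DNA was amplified and sequenced.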
# [2] = system: T2, Rep nickase domain of banana bunchy top virus
# T2 sequence (protein, residues 1-94, tag omitted): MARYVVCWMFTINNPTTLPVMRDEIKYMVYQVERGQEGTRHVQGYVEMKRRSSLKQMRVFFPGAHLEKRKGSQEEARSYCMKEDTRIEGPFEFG
# Procedure: as §1
# [3] = system: T3, Rep nickase domain of cabbage leaf curl virus
# T3 sequence (protein, residues 1-116, tag omitted): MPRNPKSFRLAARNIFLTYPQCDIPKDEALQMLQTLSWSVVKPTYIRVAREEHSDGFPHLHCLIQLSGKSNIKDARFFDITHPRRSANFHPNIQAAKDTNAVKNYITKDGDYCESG
# Procedure: as §1
# [4] = system: T4, Rep nickase domain of chickpea chlorotic dwarf virus
# T4 sequence (protein, residues 1-124, tag omitted): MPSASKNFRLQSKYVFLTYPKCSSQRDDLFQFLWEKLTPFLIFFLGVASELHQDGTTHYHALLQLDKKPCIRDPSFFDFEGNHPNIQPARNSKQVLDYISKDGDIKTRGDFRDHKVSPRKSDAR
# Procedure: as §1
# [5] = system: T5, Rep nickase domain of faba bean necrotic yellows virus
# T5 sequence (protein, residues 1-98, tag omitted): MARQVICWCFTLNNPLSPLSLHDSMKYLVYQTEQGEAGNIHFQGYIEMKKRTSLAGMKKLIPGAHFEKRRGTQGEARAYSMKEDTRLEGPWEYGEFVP
# Procedure: as §1
# [6] = system: T6, Rep nickase domain of maize striate mosaic virus
# T6 sequence (protein, residues 1-117, tag omitted): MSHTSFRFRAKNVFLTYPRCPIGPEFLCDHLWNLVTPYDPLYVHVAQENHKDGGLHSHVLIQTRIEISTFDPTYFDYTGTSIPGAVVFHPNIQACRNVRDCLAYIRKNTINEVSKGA
# Procedure: as §1
# [7] = system: T7, Rep nickase domain of porcine circovirus 2
# T7 sequence (protein, residues 2-116, tag omitted): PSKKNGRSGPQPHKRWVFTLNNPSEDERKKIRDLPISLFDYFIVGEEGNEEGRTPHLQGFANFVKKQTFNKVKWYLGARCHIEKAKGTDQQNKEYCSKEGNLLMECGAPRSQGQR
# Procedure: as §1
# [8] = system: T8, Rep nickase domain of tomato golden mosaic virus
# T8 sequence (protein, residues 1-124, tag omitted): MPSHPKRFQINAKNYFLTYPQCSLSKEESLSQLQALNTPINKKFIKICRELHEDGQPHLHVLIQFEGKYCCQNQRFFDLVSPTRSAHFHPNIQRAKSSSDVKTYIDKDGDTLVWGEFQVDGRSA
# Procedure: as §1
# [9] = system: T9, Rep nickase domain of tomato yellow leaf curl virus
# T9 sequence (protein, residues 1-136, tag omitted): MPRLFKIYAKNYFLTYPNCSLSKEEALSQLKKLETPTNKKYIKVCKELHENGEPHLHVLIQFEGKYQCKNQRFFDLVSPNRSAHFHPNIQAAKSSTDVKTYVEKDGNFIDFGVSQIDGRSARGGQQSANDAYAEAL
# Procedure: as §1
# [10] = system: T10, Rep nickase domain of wheat dwarf virus
# T10 sequence (protein, residues 1-137, tag omitted): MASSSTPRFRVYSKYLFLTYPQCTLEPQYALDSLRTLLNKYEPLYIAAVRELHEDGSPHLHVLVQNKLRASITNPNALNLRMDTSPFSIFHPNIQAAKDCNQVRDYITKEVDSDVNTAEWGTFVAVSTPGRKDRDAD
# Procedure: as §1
Sequence,uncleaved DNA left (log2) [1],uncleaved DNA left (log2) [2],uncleaved DNA left (log2) [3],uncleaved DNA left (log2) [4],uncleaved DNA left (log2) [5],uncleaved DNA left (log2) [6],uncleaved DNA left (log2) [7],uncleaved DNA left (log2) [8],uncleaved DNA left (log2) [9],uncleaved DNA left (log2) [10]
CGGAAAG,0.105,0.212,-0.274,0.0988,0.105,-0.605,0.283,0.107,0.246,0.137
AGGCGTC,-0.0986,-0.148,-0.29,-0.324,-0.106,-0.678,0.0173,-0.13,-0.0246,-0.175
ATGTTGC,-0.015,-0.104,-0.629,-0.196,0.0454,-1.01,0.147,-0.0911,-0.0138,-0.123
TGTCCAA,0.000199,0.0672,0.29,0.426,-0.0066,0.497,0.111,0.0356,0.172,0.177
TAAGAGA,0.0905,-0.0749,0.201,-0.216,0.0276,-0.17,0.134,0.0723,-0.114,0.05
GAGAGCC,0.0566,0.114,0.315,0.801,0.041,0.575,-0.0507,0.054,0.153,0.182
AATACGA,0.0561,-0.118,0.0116,-0.61,0.0245,-0.91,0.0146,-0.0198,-0.0456,-0.108
TAAACGA,0.0181,0.00733,-0.257,-1.32,0.0399,-1.04,0.153,-0.087,-0.0064,-0.146
CATTTGA,-0.0914,-0.173,-0.326,-0.783,-0.0907,-1.2,-0.0857,-0.0418,-0.0434,-0.0806
ATGATAA,0.0321,0.0505,-0.254,-0.198,0.0229,-0.348,0.102,0.0474,-0.0411,0.0112
TGGCCGA,0.00443,-0.12,-0.0174,-0.0187,-0.0862,-0.377,0.0636,-0.0518,0.0638,0.167
CGGGAAA,-0.00625,0.105,0.767,1.77,0.0533,2,0.253,-0.0927,-0.0117,0.233
GGGACGT,0.054,0.0662,0.908,2.08,-0.0264,2.29,0.222,0.0856,-0.157,0.12
CCTTGAA,-0.158,-0.205,-0.279,-0.756,-0.0852,-0.959,-0.151,-0.218,-0.239,-0.177
TCGAACG,0.163,0.00901,-0.681,-0.602,-0.096,-1.16,0.254,-0.0281,-0.0241,-0.0369
GGATCCG,0.0918,0.00451,-0.33,-0.374,-0.0121,-0.718,0.0721,-0.079,-0.0926,-0.0481
ATAGATG,0.0633,0.0734,0.125,0.804,0.0168,0.572,0.187,0.127,0.0131,0.0572
GCTGGTG,0.0907,-0.115,-0.565,-0.336,0.00596,-0.81,0.118,0.0677,-0.012,-0.183
AGTTTTC,0.0396,0.00181,0.103,0.0414,-0.0131,-0.192,-0.116,0.102,0.00438,0.0822
AATGTGG,0.0612,-0.103,-0.32,-0.294,0.0799,-1.08,0.0938,0.0316,-0.00464,0.017
AAAGCCG,-0.039,-0.039,-0.866,-0.368,-0.0409,-1.15,0.124,-0.121,-0.0596,-0.0991

Sequence,uncleaved DNA left (log2) [1],uncleaved DNA left (log2) [2],uncleaved DNA left (log2) [3],uncleaved DNA left (log2) [4],uncleaved DNA left (log2) [5],uncleaved DNA left (log2) [6],uncleaved DNA left (log2) [7],uncleaved DNA left (log2) [8],uncleaved DNA left (log2) [9],uncleaved DNA left (log2) [10]
ACGCGTC,0.0289,-0.0387,-0.85,-0.681,-0.0405,-1.14,-0.0648,-0.193,-0.0107,-0.19
ACGGCGC,-0.0226,-0.147,-0.531,0.0841,-0.112,-0.417,0.0686,-0.102,-0.0583,-0.145
TACGTTC,-0.0243,-0.159,-0.0604,-1.65,-0.012,-0.54,-0.162,-0.157,-0.0719,-0.274
TACTGCC,0.0131,-0.0509,-0.201,-0.135,0.105,-0.207,-0.0615,-0.0489,0.00359,0.0213
ATTTGTA,-0.531,-0.32,-0.468,-1.52,-0.00996,-1.23,-0.901,-0.122,-0.0249,-0.152
GTCGCTG,-0.103,-0.0792,0.0736,0.726,-0.15,1.47,-0.0521,-0.0658,-0.15,-0.101
TCGACCC,0.0207,0.0217,0.247,0.35,0.0389,0.432,-0.291,-0.0775,0.00305,-0.0968
TCCCCGA,0.0429,-0.017,-0.128,-0.314,-0.101,-0.704,0.0558,-0.0433,0.0514,-0.054
CTCTCCT,-0.281,-0.221,-0.246,-1.18,-0.0965,0.232,-0.701,-0.309,-0.198,-0.123
GGGTCTA,0.1,0.0761,0.841,1.97,0.0332,2.28,0.222,0.117,0.11,0.262
CTCCAGC,-0.0404,-0.0011,-0.157,-0.43,-0.00382,-0.95,0.0614,-0.0212,-0.0334,-0.0232
GGTTTGA,-0.0113,0.0145,0.292,0.866,-0.0721,1.47,-0.00116,0.0105,0.0335,0.135
CGGATAA,0.0239,0.0588,0.183,0.808,0.00258,0.833,0.109,0.123,0.0133,0.0965
CATGGTA,-0.0475,-0.129,-0.0998,-0.187,0.0203,-0.0822,-0.0733,0.00526,-0.0881,-0.071
TATCATT,-1.15,-0.277,-0.805,-1.88,-0.106,-0.219,-2.81,-0.136,0.0761,0.0764
GAGCCGG,0.0944,0.06,0.363,0.952,0.0513,1.46,0.108,0.248,0.0336,0.0915
GGGTTGT,0.103,0.0984,0.774,1.77,-0.0428,2.09,-0.0786,0.0313,0.0588,0.00449
AAACGTT,-0.0143,-0.0717,-1.53,-2.39,-0.0399,-0.889,-1.12,-0.0449,0.0793,-0.733
ACTAGGT,0.0767,0.0437,0.344,0.562,0.0731,0.0944,-0.11,0.149,0.0686,0.0483
TGTATTG,-0.086,-0.0526,-0.374,-0.419,0.092,-1.01,0.0277,-0.0357,0.0584,-0.111
TATATTA,-0.0144,-0.0895,-0.103,-2.11,0.0625,-0.416,-0.304,-0.0417,0.0917,-0.0707

Sequence,uncleaved DNA left (log2) [1],uncleaved DNA left (log2) [2],uncleaved DNA left (log2) [3],uncleaved DNA left (log2) [4],uncleaved DNA left (log2) [5],uncleaved DNA left (log2) [6],uncleaved DNA left (log2) [7],uncleaved DNA left (log2) [8],uncleaved DNA left (log2) [9],uncleaved DNA left (log2) [10]
ACATCAT,0.0648,0.115,0.0318,-0.835,0.136,-0.497,-0.0593,0.125,-0.0682,0.0708
GTACTTA,0.0115,-0.062,0.279,0.642,-0.0675,1.56,-0.055,0.00382,0.0787,0.0296
GTTTCCA,-0.0854,0.0372,0.31,0.818,-0.0952,1.8,0.0976,0.0621,0.0596,0.00941
GTGACCC,-0.115,0.0209,0.327,0.977,-0.0186,1.64,-0.0391,-0.0138,0.0436,0.0436
GTTGGTT,-0.0945,-0.0179,0.189,0.603,0.0183,1.44,0.0173,-0.0541,-0.134,-0.082
TGATAGC,0.0258,-0.0937,-0.29,-0.378,-0.0551,-0.942,0.0408,-0.101,-0.0807,-0.0648
CGCATTA,0.076,0.0858,-0.169,-0.798,0.0227,-0.539,0.00159,-0.0129,0.238,0.0512
CAAGAGA,0.139,0.0516,0.295,0.461,0.145,-0.507,0.078,0.0898,0.0118,0.105
ATGTCTG,0.0307,-0.123,0.017,0.64,0.0817,0.738,0.065,-0.0324,-0.0205,-0.0595
CTTAATA,0.000554,0.187,-0.0729,-1.5,0.1,-0.676,0.123,0.11,0.095,0.185
ACACATG,-0.0434,0.0874,-0.686,-0.229,0.0107,-0.753,0.16,0.00236,0.148,-0.129
CCCGAGG,-0.122,-0.302,0.3,1.16,-0.245,1.19,-0.19,-0.0812,-0.26,-0.31
TGGTCAG,0.0841,0.145,0.174,0.587,0.0574,-0.192,0.191,0.054,0.0986,0.0565
ATCAAGT,-0.131,0.0728,0.0746,-0.319,0.0542,-1.03,-0.0272,0.00752,-0.0038,0.0368
GCCTGTT,-2.54,-0.14,-0.296,-0.997,-0.151,0.392,-2.77,-0.0169,-0.103,-0.337
GTATGAG,0.0749,-0.00261,-0.562,-0.235,0.172,-0.737,0.131,0.122,0.198,0.0147
CAGTTGT,-0.267,-1.58,-0.493,-1.35,-0.436,-0.81,-3.86,-0.12,0.0449,-0.182
CCCAAAA,-0.07,0.0897,-0.0913,0.122,0.0406,-0.612,0.12,0.129,-0.062,0.0552
GCTATCA,0.0937,0.152,0.301,0.456,-0.0607,0.73,0.00961,0.0283,0.198,0.151
CCGTCAT,-0.106,-0.0216,0.159,-0.305,-0.153,-0.0288,-1.38,-0.195,-0.1,-0.139

# From the supplement of paper PMC7826260
